In the supplement of paper PMC8948288:
The sequences are guide strands of siRNAs; only the seed at positions 2 to 7 varies.

Legend:
GL261 = experiment: cell viability relative to siNT1 (ATP content); H4 human neuroglioma and GL261 mouse glioma; higher = less toxic; conditions: siRNA concentration 25 nM; 96 h; mouse
H4 = experiment: as above; conditions: siRNA concentration 10 nM; 96 h; human
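Further: cells reverse transfected with siRNA duplexes via lipid reagent, ATP read by luminescence, triplicate wells, values scaled to mean viability with non-targeting control siNT1.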

Sequence | cell viability (GL261) | cell viability (H4)
UUCGGAAACAUGUAAACCA | 69% | 93.1%
UUCGGACACAUGUAAACCA | 11.9% | 51%
UUCGGAGACAUGUAAACCA | 39.6% | 95.5%
UUCGGAUACAUGUAAACCA | 53.1% | 84.4%
UUCGGCAACAUGUAAACCA | 44.9% | 106%
UUCGGCCACAUGUAAACCA | 28.3% | 70.1%
UUCGGCGACAUGUAAACCA | 37.4% | 97.8%
UUCGGCUACAUGUAAACCA | 42.1% | 65.7%
UUCGGGAACAUGUAAACCA | 84.6% | 103%
UUCGGGCACAUGUAAACCA | 12.3% | 31.2%
UUCGGGGACAUGUAAACCA | 57% | 38.8%
UUCGGGUACAUGUAAACCA | 25.3% | 46.8%
UUCGGUAACAUGUAAACCA | 48.4% | 95.4%
UUCGGUCACAUGUAAACCA | 37.4% | 51%
UUCGGUGACAUGUAAACCA | 61.5% | 102%
UUCGGUUACAUGUAAACCA | 26.5% | 85.6%
UUCGUAAACAUGUAAACCA | 48.6% | 92.6%
UUCGUACACAUGUAAACCA | 56.3% | 78%
UUCGUAGACAUGUAAACCA | 71% | 113%
UUCGUAUACAUGUAAACCA | 28.3% | 83.6%
UUCGUCAACAUGUAAACCA | 71.6% | 115%
UUCGUCCACAUGUAAACCA | 46.5% | 67.5%
UUCGUCGACAUGUAAACCA | 85.3% | 110%

Sequence | cell viability (GL261) | cell viability (H4)
UUCGUCUACAUGUAAACCA | 35.4% | 96.7%
UUCGUGAACAUGUAAACCA | 66.4% | 94.7%
UUCGUGCACAUGUAAACCA | 26.6% | 20.4%
UUCGUGGACAUGUAAACCA | 44.1% | 68.6%
UUCGUGUACAUGUAAACCA | 42.1% | 122%
UUCGUUAACAUGUAAACCA | 68.6% | 105%
UUCGUUCACAUGUAAACCA | 30% | 91.9%
UUCGUUGACAUGUAAACCA | 49.9% | 102%
UUCGUUUACAUGUAAACCA | 39.9% | 93.2%
UUCUAAAACAUGUAAACCA | 68.1% | 96.4%
UUCUAACACAUGUAAACCA | 53.8% | 78.9%
UUCUAAGACAUGUAAACCA | 61.4% | 101%
UUCUAAUACAUGUAAACCA | 50.2% | 103%
UUCUACAACAUGUAAACCA | 65.7% | 93.1%
UUCUACCACAUGUAAACCA | 30.1% | 26.2%
UUCUACGACAUGUAAACCA | 75.8% | 87.4%
UUCUACUACAUGUAAACCA | 26.3% | 62.1%
UUCUAGAACAUGUAAACCA | 59.9% | 102%
UUCUAGCACAUGUAAACCA | 17.9% | 42.5%
UUCUAGGACAUGUAAACCA | 35% | 62.1%
UUCUAGUACAUGUAAACCA | 36.2% | 56.1%
UUCUAUAACAUGUAAACCA | 56% | 75%
UUCUAUCACAUGUAAACCA | 42% | 66.6%

Sequence | cell viability (GL261) | cell viability (H4)
UUCUAUGACAUGUAAACCA | 51.1% | 105%
UUCUAUUACAUGUAAACCA | 51.1% | 74%
UUCUCAAACAUGUAAACCA | 38% | 107%
UUCUCACACAUGUAAACCA | 25.2% | 66%
UUCUCAGACAUGUAAACCA | 27% | 71.2%
UUCUCAUACAUGUAAACCA | 32.2% | 67.6%
UUCUCCAACAUGUAAACCA | 34.1% | 80.1%
UUCUCCCACAUGUAAACCA | 17.6% | 52%
UUCUCCGACAUGUAAACCA | 36.2% | 94.6%
UUCUCCUACAUGUAAACCA | 24.7% | 59.9%
UUCUCGAACAUGUAAACCA | 46% | 92.2%
UUCUCGCACAUGUAAACCA | 19.9% | 61.3%
UUCUCGGACAUGUAAACCA | 58.5% | 71.4%
UUCUCGUACAUGUAAACCA | 22.7% | 89.6%
UUCUCUAACAUGUAAACCA | 48.7% | 89.4%
UUCUCUCACAUGUAAACCA | 18.1% | 63.5%
UUCUCUGACAUGUAAACCA | 37.1% | 86.9%
UUCUCUUACAUGUAAACCA | 32.1% | 91.3%
UUCUGAAACAUGUAAACCA | 78% | 81.5%
UUCUGACACAUGUAAACCA | 38.4% | 65%
UUCUGAGACAUGUAAACCA | 54.5% | 64.9%
UUCUGAUACAUGUAAACCA | 50.3% | 61.6%
UUCUGCAACAUGUAAACCA | 37.8% | 56%

Sequence | cell viability (GL261) | cell viability (H4)
UUCUGCCACAUGUAAACCA | 6.21% | 29.3%
UUCUGCGACAUGUAAACCA | 35.4% | 92.8%
UUCUGCUACAUGUAAACCA | 7.95% | 29.8%
UUCUGGAACAUGUAAACCA | 27.3% | 64.5%
UUCUGGCACAUGUAAACCA | 16.2% | 7.34%
UUCUGGGACAUGUAAACCA | 4.3% | 8.37%
UUCUGGUACAUGUAAACCA | 14.9% | 20.8%
UUCUGUAACAUGUAAACCA | 61% | 83.4%
UUCUGUCACAUGUAAACCA | 22% | 63.5%
UUCUGUGACAUGUAAACCA | 38.2% | 67.6%
UUCUGUUACAUGUAAACCA | 25.8% | 63.5%
UUCUUAAACAUGUAAACCA | 68.2% | 92.1%
UUCUUACACAUGUAAACCA | 49.2% | 83.9%
UUCUUAGACAUGUAAACCA | 61.7% | 103%
UUCUUAUACAUGUAAACCA | 77.4% | 103%
UUCUUCAACAUGUAAACCA | 30.4% | 91.1%
UUCUUCCACAUGUAAACCA | 28.7% | 44.1%
UUCUUCGACAUGUAAACCA | 48.5% | 88.9%
UUCUUCUACAUGUAAACCA | 16% | 54%
UUCUUGAACAUGUAAACCA | 61.2% | 75.6%
UUCUUGCACAUGUAAACCA | 21.3% | 14.4%
